About 220 (0.56%) of roughly 39,000 compounds showed activity. Some of the results follow.
Tested on: Escherichia coli K-12 BW25113
Assay: relative growth (OD600 normalised to plate interquartile mean) (fraction); higher = less growth inhibition, active = 0.2 or less
Settings: 50 µM; LB; incubation time: overnight (16-24 h)
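Note: static incubation at 37 °C against the wild-type strain, values averaged over two biological replicates.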

| Compound | relative growth |
| --- | --- |
| C[C@@H]1CN([C@@H](C)CO)C(=O)c2cc(N(C)C)ccc2O[C@@H](C)CCCCO[C@H]1CN(C)Cc1ccc(C(=O)Nc2ccccc2N)cc1 | inactive: 0.999 |
| O=C(O)c1ccccc1Nc1cccc(C(F)(F)F)c1 | inactive: 0.887 |
| C[C@@H]1CN([C@@H](C)CO)C(=O)c2cccc(NS(=O)(=O)c3ccc(F)cc3)c2O[C@@H]1CN(C)C(=O)Nc1cccc2ccccc12 | inactive: 0.998 |
| COc1ccc(S(=O)(=O)Nc2ccc3c(c2)C(=O)N([C@H](C)CO)C[C@H](C)[C@H](CN(C)S(=O)(=O)c2cccs2)O3)cc1 | inactive: 1.05 |
| COc1ccc(CN(C)C[C@@H]2Oc3ccc(NC(=O)Cn4cnnn4)cc3C(=O)N([C@@H](C)CO)C[C@@H]2C)cc1 | inactive: 0.987 |
| Nc1ncnc2c1ncn2[C@H]1CC[C@@H](CO)O1 | inactive: 0.476 |
| Cc1ccc(S(=O)(=O)Nc2ccc3c(c2)C(=O)N([C@H](C)CO)C[C@H](C)[C@H](CN(C)Cc2ccc(Cl)c(Cl)c2)O3)cc1 | inactive: 1 |
| CNC[C@@H]1OCCCC[C@@H](C)Oc2ccc(NC(=O)c3ccncc3)cc2C(=O)N([C@H](C)CO)C[C@@H]1C | inactive: 0.994 |
| COc1ccc(S(=O)(=O)Nc2ccc3c(c2)C(=O)N([C@@H](C)CO)C[C@@H](C)[C@H](CN(C)Cc2ccncc2)O3)cc1 | inactive: 0.982 |
| CCn1c(N)c(C(N)=O)sc1=S | inactive: 1.02 |
| C[C@H](CO)N1C[C@H](C)[C@@H](CN(C)S(C)(=O)=O)Oc2c(NC(=O)Nc3ccc(F)cc3)cccc2C1=O | inactive: 0.994 |
| C[C@@H]1CN([C@H](C)CO)C(=O)c2cc(NC(=O)Nc3ccc(F)cc3)ccc2O[C@@H](C)CCCCO[C@H]1CN(C)C(=O)Nc1ccc(F)cc1 | inactive: 1.05 |
| COc1ccc(CCNC(=O)[C@@]2(Sc3ccc(C)cc3)CC(=O)N(Cc3cc(C(F)(F)F)cc(C(F)(F)F)c3)[C@@H]2c2ccc(CO)cc2)cc1 | inactive: 1.02 |
| C[C@@H]1CCCCO[C@@H](CN(C)C(=O)c2ccccc2)[C@H](C)CN([C@H](C)CO)C(=O)c2cc(NC(=O)CCC(F)(F)F)ccc2O1 | inactive: 0.992 |
| CC(=O)Nc1ccc(S(=O)(=O)c2ccc(NC(C)=O)cc2)cc1 | inactive: 1.13 |
| C[C@@H]1CCCCO[C@@H](CN(C)C(=O)Nc2ccc3c(c2)OCO3)[C@@H](C)CN([C@H](C)CO)C(=O)c2cc(NC(=O)Nc3cccc4ccccc34)ccc2O1 | inactive: 1.05 |
| O=C([O-])CCNC(=O)c1ccc(N=Nc2ccc(O)c(C(=O)[O-])c2)cc1.[Na+].[Na+] | inactive: 0.999 |
| Cc1cc(C(=O)Nc2cccc3c2O[C@H](CN(C)C(=O)NC(C)C)[C@H](C)CN([C@H](C)CO)C3=O)n(C)n1 | inactive: 1.02 |
| CC(C)=CCCC(C)=CCC1=C(C)C(=O)c2ccccc2C1=O | inactive: 0.96 |
| COc1cccc(S(=O)(=O)Nc2ccc3c(c2)[C@@H]2C[C@H](CC(=O)NCC(F)(F)F)O[C@H](CO)[C@@H]2O3)c1 | inactive: 1.01 |
| C[C@H](CO)N1C[C@H](C)[C@H](CN(C)Cc2ccncc2)Oc2ccc(NS(=O)(=O)c3ccc(F)cc3)cc2C1=O | inactive: 0.996 |

| Compound | relative growth |
| --- | --- |
| O=C(C[C@@H]1CC[C@H]2[C@@H](COC[C@@H](O)CN2C(=O)c2ccncc2)O1)NC1CCC1 | inactive: 0.999 |
| C[C@@H]1CCCCO[C@H](CN(C)C(=O)C2CCCCC2)[C@@H](C)CN([C@H](C)CO)C(=O)c2cc(NS(=O)(=O)c3ccc(F)cc3)ccc2O1 | inactive: 1.03 |
| Cc1ccc(S(=O)(=O)N(C)C[C@@H]2Oc3ccc(NC(=O)C4CC4)cc3CC(=O)N([C@H](C)CO)C[C@@H]2C)cc1 | inactive: 0.956 |
| Cc1noc(C)c1NC(=O)N(C)C[C@H]1Oc2ccc(NC(=O)Nc3ccc(C(F)(F)F)cc3)cc2C(=O)N([C@H](C)CO)C[C@@H]1C | inactive: 0.993 |
| C[C@H]1CN([C@@H](C)CO)C(=O)c2cccc(NC(=O)c3ccc(-c4nccs4)cc3)c2O[C@@H]1CN(C)C(=O)NC1CCCCC1 | inactive: 0.967 |
| C[C@H]1CN([C@@H](C)CO)C(=O)CCCn2nncc2CO[C@@H]1CN(C)C(=O)Nc1ccc2c(c1)OCO2 | inactive: 1 |
| CO[C@@H]1CN(C)C(=O)c2ccc(NC(=O)C3CCOCC3)cc2OC[C@@H](C)N(Cc2cccnc2)C[C@@H]1C | inactive: 0.98 |
| C[C@@H]1CCCCO[C@H](CN(C)C(=O)Nc2ccccc2)[C@@H](C)CN([C@@H](C)CO)C(=O)c2cc(NS(=O)(=O)c3ccc(F)cc3)ccc2O1 | inactive: 1.04 |
| C[C@@H]1CN([C@@H](C)CO)S(=O)(=O)c2ccc(C#Cc3ccncc3)cc2O[C@@H]1CN(C)C(=O)C1CCC1 | inactive: 0.988 |
| O=C(C[C@@H]1CC[C@@H]2[C@H](COC[C@H](O)CN2C(=O)c2cnccn2)O1)NCc1ccc(Oc2ccccc2)cc1 | inactive: 0.985 |
| CO[C@H](CN(C)C(=O)c1ccc2c(c1)OCO2)[C@H](C)CN([C@@H](C)CO)S(=O)(=O)c1ccc(F)cc1 | inactive: 0.991 |
| CC(C)NC(=O)N(C)C[C@H]1Oc2ccc(NS(=O)(=O)c3ccc(F)cc3)cc2C(=O)N([C@@H](C)CO)C[C@H]1C | inactive: 0.982 |
| C[C@@H]1CN([C@@H](C)CO)C(=O)c2cc(NS(=O)(=O)c3cccs3)ccc2O[C@@H]1CN(C)S(C)(=O)=O | inactive: 0.993 |
| O=C(C[C@H]1C=C[C@H](NS(=O)(=O)c2ccc(F)cc2)[C@H](CO)O1)N1CCC(Cc2ccccc2)CC1 | inactive: 1 |
| O=C(NC1CCCCC1)N1c2ccccc2C=Cc2ccccc21 | inactive: 0.989 |
| COc1ccc2c3c([nH]c2c1)[C@H](CO)N(C[C@]13CCN(CC1)Cc1ccc(cc1)F)C(=O)Nc1ccc(cc1)F | inactive: 0.983 |
| COc1ccc(NC(=O)Nc2ccc3c(c2)C(=O)N([C@H](C)CO)C[C@H](C)[C@H](CN(C)C(=O)NC(C)C)OCCCC[C@@H](C)O3)cc1 | inactive: 1 |
| CCOc1ccc2c(c1)-c1c(ssc1=S)C(C)(C)N2C | inactive: 0.993 |
| C[C@H](CO)N1C[C@H](C)[C@H](CN(C)Cc2cccc3c2OCCCO3)OCc2cn(nn2)CCCC1=O | inactive: 0.965 |
| Cc1cc(C(=O)Nc2cccc3c2O[C@H](CN(C)S(=O)(=O)c2cccs2)[C@@H](C)CN([C@H](C)CO)C3=O)n(C)n1 | inactive: 0.993 |
| Nc1ncnc(Cl)c1N | inactive: 0.988 |

| Compound | relative growth |
| --- | --- |
| NC(=O)NN=Cc1ccc([N+](=O)[O-])o1 | active: 0.0474 |
| NC(=O)NCC#Cc1ccc2c(c1)[C@]1(C(=O)N2)[C@H](C(=O)N2CCN(c3ncccn3)CC2)[C@H]2C(=O)O[C@H](c3ccccc3)[C@H](c3ccccc3)N2[C@@H]1c1ccc(OCCO)cc1 | inactive: 1.01 |
| Cc1noc(C)c1S(=O)(=O)Nc1ccc2c(c1)C(=O)N([C@@H](C)CO)C[C@H](C)[C@@H](CN(C)C(=O)Nc1ccc3c(c1)OCO3)O2 | inactive: 1.01 |
| CCCNC(=O)N1C[C@@H](C)[C@H](OC)CN(C)C(=O)c2ccc(NS(=O)(=O)CC(F)(F)F)cc2OC[C@H]1C | inactive: 1 |
| O=C(c1ccccc1)c1ccccc1 | inactive: 1.01 |
| COc1ccc(C(N)=O)cc1 | inactive: 0.985 |
| COc1ccc(NC(=O)Nc2ccc3c(c2)CC(=O)N([C@H](C)CO)C[C@@H](C)[C@H](CN(C)S(C)(=O)=O)O3)cc1 | inactive: 1.01 |
| COc1ccc(S(=O)(=O)N(C)C[C@@H]2Oc3c(NS(=O)(=O)c4cn(C)cn4)cccc3C(=O)N([C@@H](C)CO)C[C@H]2C)cc1 | inactive: 0.983 |
| COc1ccc2c3c(n(c2c1)C)[C@H](CO)N(C[C@]13CCN(CC1)CC1CCOCC1)C(=O)Cc1ccccn1 | inactive: 1.03 |
| C[C@@H]1CN([C@@H](C)CO)S(=O)(=O)c2ccc(C#CC3(O)CCCC3)cc2O[C@@H]1CN(C)C(=O)Cc1ccccc1 | inactive: 1 |
| O=C(C[C@@H]1CC[C@H]2[C@@H](COC[C@@H](O)CN2S(=O)(=O)c2cccc(Cl)c2)O1)NCc1ccncn1 | inactive: 0.993 |
| C[C@@H]1CN([C@@H](C)CO)S(=O)(=O)c2ccc(C#Cc3ccccc3)cc2O[C@H]1CN(C)S(=O)(=O)c1cn(C)cn1 | inactive: 1.01 |
| C[C@@H]1CN([C@@H](C)CO)S(=O)(=O)c2ccc(C#CC3(O)CCCC3)cc2O[C@H]1CN(C)C(=O)Nc1ccccc1 | inactive: 1.01 |
| C[C@@H]1CCCCO[C@@H](CN(C)C(=O)Nc2ccc(F)cc2)[C@@H](C)CN([C@H](C)CO)C(=O)c2cc(NS(=O)(=O)c3cccs3)ccc2O1 | inactive: 0.998 |
| C[C@@H]1CCCCO[C@@H](CN(C)S(=O)(=O)c2ccc(F)cc2)[C@@H](C)CN([C@H](C)CO)C(=O)c2cc(NS(=O)(=O)c3ccc(Cl)cc3)ccc2O1 | inactive: 1.02 |
| C[C@H](CO)N1C[C@H](C)[C@@H](CN(C)Cc2cccc(F)c2)OCc2ccccc2-c2c(n(C)c3ccccc23)C1=O | inactive: 1.01 |
| COc1ccc(S(=O)(=O)N2C[C@H](O)COC[C@H]3O[C@H](CC(=O)NCCCN4CCOCC4)CC[C@@H]32)cc1 | inactive: 1 |
| COc1ccc([Si](C)(C)[C@@H]2[C@@H](CCOC(=O)NCCCCCC(=O)NO)O[C@@]3(C(=O)N(Cc4cccc(I)c4)c4ccccc43)[C@H]2C)cc1 | inactive: 0.934 |
| c1ccc(-c2nc(-c3cccs3)[nH]c2-c2ccccc2)cc1 | inactive: 1.03 |
| Cc1noc(C)c1NC(=O)N(C)C[C@H]1OCCCC[C@@H](C)Oc2ccc(NS(=O)(=O)c3ccccc3)cc2C(=O)N([C@@H](C)CO)C[C@@H]1C | inactive: 0.975 |

Source: the supplement of paper PMC9446081
